Results as given in the supplement of paper PMC4166925.
± gives the standard deviation of the averaged measurements. In all, about 33,000 sequences were measured (“E-score (dimensionless, -0.5 to 0.5)”: median about -0.049, highest 2% from about 0.37 on). The list shows a part of the results.

system: T1, PmTbr T-box DNA-binding domain (GST fusion); test: PBM E-score of 8-mer (E-score (dimensionless, -0.5 to 0.5)); Tbr is Tbrain of the sea star Patiria miniata (Pm) or the sea urchin Strongylocentrotus purpuratus (Sp); higher = stronger binding preference; most listed sequences are background and not binding sites; details: the construct has about 5 more residues each side
T1 sequence: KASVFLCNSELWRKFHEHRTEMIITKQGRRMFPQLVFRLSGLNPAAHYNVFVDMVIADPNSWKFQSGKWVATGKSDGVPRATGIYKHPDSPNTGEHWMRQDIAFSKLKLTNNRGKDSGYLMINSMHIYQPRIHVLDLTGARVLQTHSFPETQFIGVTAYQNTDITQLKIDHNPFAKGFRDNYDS
Description: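 Universal protein-binding microarray (Agilent AMADID 016060, 60-bp probes with a 35-bp variable region) incubated with 200 nM GST-fused Patiria miniata Tbr T-box DNA-binding domain (residues 272-466) in PBS pH 7.5. Scored for every ungapped 8-mer (given with its reverse complement) by the Universal PBM Analysis Suite as E-score (modified Wilcoxon-Mann-Whitney enrichment, range -0.5 to 0.5; >0.45 counts as bound) and Z-score of median probe intensity. Two replicate arrays (datasets 1 and 2).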
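Also: 200 nM protein in PBS on universal arrays averaged over duplicate arrays.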

| Sequence | PBM E-score of 8-mer |
| --- | --- |
| ACGATAAG | 0.205 ± 0.036 |
| AATTCTAC | -0.139 ± 0.052 |
| GCTTGCAA | 0.0978 ± 0.046 |
| TAATCTCA | 0.11 ± 0.046 |
| ACGGGCTA | -0.226 ± 0.043 |
| CTTCTGAA | -0.105 ± 0.042 |
| CCGCGACG | 0.0481 ± 0.087 |
| ACATGGCG | 0.0665 ± 0.025 |
| ATAGGTAG | 0.0524 ± 0.071 |
| AAGTTAAA | 0.04 ± 0.038 |
| CGGCATTC | -0.0164 ± 0.088 |
| GGACAAAA | -0.0744 ± 0.068 |
| GGGGTATA | -0.299 ± 0.038 |
| ATGCACCC | 0.0287 ± 0.023 |
| AGCCCACA | 0.0138 ± 0.12 |
| ACATGGAC | 0.164 ± 0.12 |
| CACTCGAC | 0.12 ± 0.03 |
| CTGGGAAG | 0.0251 ± 0.014 |
| AAAGGGCC | -0.414 ± 0.013 |
| CAAATGTC | 0.0249 ± 0.12 |
| TCATTTCA | 0.111 ± 0.074 |
| CTGAGAAC | -0.052 ± 0.016 |
| ATTGGCGC | 0.242 ± 0.0091 |
| ACATTCTA | -0.147 ± 0.022 |
| AACCGTGC | 0.0615 ± 0.0091 |

| Sequence | PBM E-score of 8-mer |
| --- | --- |
| CCAATAGA | -0.0941 ± 0.052 |
| CGATACCA | -0.00089 ± 0.011 |
| GGGTATAA | -0.106 ± 0.049 |
| CTGACTAA | 0.0252 ± 0.0089 |
| CGGTAGCC | -0.275 ± 0.031 |
| GAAGAATC | -0.0293 ± 0.092 |
| CTGTATCA | -0.209 ± 0.032 |
| ATTGTTGG | -0.0492 ± 0.03 |
| AGTGGGAA | 0.175 ± 0.0032 |
| CACTCTGA | 0.0843 ± 0.094 |
| CAGTTCGA | -0.0617 ± 0.038 |
| GACTACCA | -0.0358 ± 0.082 |
| CCGGGTAA | -0.112 ± 0.058 |
| GAGGCTGC | -0.122 ± 0.048 |
| CGAGCCCC | 0.0194 ± 0.015 |
| AGCACTAG | -0.167 ± 0.018 |
| GCAGATAC | -0.135 ± 0.035 |
| CTGATATA | -0.0707 ± 0.018 |
| GTTCATCA | -0.0322 ± 0.044 |
| CGATCACC | 0.0573 ± 0.022 |
| ACGACTCT | -0.0693 ± 0.011 |
| CTGCGAAA | 0.368 ± 0.0074 |
| AGCTGACT | -0.149 ± 0.049 |
| CTGTAGTA | -0.232 ± 0.056 |
| CATCTGGA | -0.0451 ± 0.068 |

| Sequence | PBM E-score of 8-mer |
| --- | --- |
| CCGGCGTA | -0.135 ± 0.062 |
| GATTTTTA | -0.12 ± 0.11 |
| CCTTCGAG | 0.0506 ± 0.051 |
| AACGTGCA | 0.0842 ± 0.061 |
| GATAGCCC | -0.196 ± 0.047 |
| ACGCAACT | -0.0771 ± 0.13 |
| CTTGGATC | -0.128 ± 0.0099 |
| CGGTGGAA | -0.151 ± 0.008 |
| AGGGAAAG | -0.118 ± 0.02 |
| GAAGATAA | -0.0534 ± 0.046 |
| CAAGTCAG | -0.0747 ± 0.087 |
| AACTTAAG | -0.124 ± 0.039 |
| GAACTGCC | -0.0593 ± 0.032 |
| ATGGAGTC | -0.159 ± 0.0025 |
| GACCGATA | -0.0823 ± 0.0091 |
| ATCTGCGA | 0.139 ± 0.029 |
| CCCGATCG | -0.177 ± 0.02 |
| ACTGTGGA | -0.0904 ± 0.087 |
| AGGGAGGA | -0.3317 ± 0.00035 |
| GATCCGCC | -0.139 ± 0.043 |
| CGCCTGAC | 0.131 ± 0.037 |
| GTCGAGCA | -0.045 ± 0.037 |
| ATTCCCTG | -0.117 ± 0.028 |
| GTAGCTAC | -0.4 ± 0.032 |
| CCGCCTAG | -0.0558 ± 0.09 |

| Sequence | PBM E-score of 8-mer |
| --- | --- |
| AATGGTCC | -0.281 ± 0.014 |
| AGCAGTAG | -0.0991 ± 0.011 |
| AAGCGCAA | 0.0876 ± 0.052 |
| AGACCAGA | -0.229 ± 0.068 |
| ATTGCTAA | 0.1815 ± 0.0012 |
| CACATTAG | 0.261 ± 0.016 |
| CGGAACTA | -0.0825 ± 0.011 |
| GGATATCC | -0.1072 ± 0.00017 |
| AGACGACT | -0.237 ± 0.059 |
| GAATATCC | -0.274 ± 0.066 |
| CGTTAGAA | -0.0209 ± 0.054 |
| ACTTCCTA | 0.00936 ± 0.068 |
| AGCGCGTC | 0.215 ± 0.034 |
| ACACTAAA | 0.177 ± 0.055 |
| GCAGCACC | 0.258 ± 0.032 |
| CTGGGTCC | -0.0854 ± 0.066 |
| CCATGTCC | -0.36 ± 0.015 |
| GGCCGCAA | -0.0658 ± 0.058 |
| CGAACGTA | -0.0181 ± 0.0094 |
| AATGTCGT | -0.00733 ± 0.0032 |
| ACGGACCC | -0.108 ± 0.015 |
| GCGAACCC | 0.15 ± 0.039 |
| AGAAAACT | -0.127 ± 0.15 |
| AGAGACAC | 0.124 ± 0.026 |
| ACGTAAAT | -0.0451 ± 0.033 |

| Sequence | PBM E-score of 8-mer |
| --- | --- |
| AGCCCGGA | -0.3 ± 0.021 |
| CATATTGA | -0.0595 ± 0.011 |
| CAAACGCA | -0.086 ± 0.0022 |
| CATTGGAG | -0.0404 ± 0.075 |
| CGGTGCTA | 0.321 ± 0.0088 |
| CATCTAAC | 0.0827 ± 0.038 |
| GTAACTAA | -0.275 ± 0.031 |
| CGGGTGCA | 0.136 ± 0.024 |
| CAGTGGGC | -0.0573 ± 0.025 |
| CAATGGCC | -0.115 ± 0.0065 |
| CCCCTGCA | -0.125 ± 0.044 |
| GACATCAC | 0.167 ± 0.021 |
| AATGACTC | -0.0348 ± 0.078 |
| GACTTGCC | 0.189 ± 0.016 |
| AATGACAG | 0.0032 ± 0.088 |
| ACAAGAGA | -0.0905 ± 0.018 |
| ATACATTC | -0.0803 ± 0.0088 |
| CTAGGCAA | -0.137 ± 0.05 |
| CATCACGA | -0.008 ± 0.1 |
| CTCTGTCC | -0.14 ± 0.021 |
| AACGTGGG | 0.165 ± 0.045 |
| CAATGTTC | -0.00709 ± 0.021 |
| CCTCTCGA | 0.152 ± 0.018 |
| AGCATCCG | -0.0104 ± 0.039 |
| ATGCTCTG | -0.142 ± 0.0066 |

| Sequence | PBM E-score of 8-mer |
| --- | --- |
| ACGGCGCC | 0.0734 ± 0.073 |
| GGATTGTA | -0.0921 ± 0.048 |
| ACCTACGT | 0.00861 ± 0.0073 |
| CAACCCTG | -0.0356 ± 0.041 |
| CTACGAAG | -0.0726 ± 0.057 |
| GGGACTTA | -0.217 ± 0.062 |
| GCGCATGA | -0.022 ± 0.008 |
| CATGCACA | -0.038 ± 0.018 |
| ATCGCACA | 0.3241 ± 0.00047 |
| ACATTAAA | -0.18 ± 0.025 |
| CCTGTATA | -0.00183 ± 0.082 |
| CGTACTCC | -0.0693 ± 0.078 |
| CCTATTTC | -0.128 ± 0.053 |
| ACCCTATC | 0.135 ± 0.043 |
| TCTGAGCA | -0.23 ± 0.016 |
| GAGACGTA | -0.0252 ± 0.019 |
| ATTTGGAG | -0.189 ± 0.015 |
| CGACAGGA | 0.0929 ± 0.046 |
| AAGCTTAG | -0.0696 ± 0.026 |
| ACCGATCG | 0.24 ± 0.025 |
| AGTCATAT | -0.234 ± 0.069 |
| GTCAGCCA | 0.0752 ± 0.093 |
| ACACTACC | 0.2187 ± 0.0013 |
| TACCTCCA | -0.00358 ± 0.099 |
| AGTGCTAA | 0.421 ± 0.012 |

| Sequence | PBM E-score of 8-mer |
| --- | --- |
| GCGCGGTA | -0.109 ± 0.03 |
| AGGGATTG | -0.136 ± 0.047 |
| CAACAAGC | 0.0422 ± 0.028 |
| ATATAGGC | 0.00492 ± 0.055 |
| ACCGAAAA | -0.165 ± 0.011 |
| GGGTGCTA | 0.4326 ± 0.0028 |
| GGGGCTAA | -0.0787 ± 0.028 |
| AACCTTAA | -0.209 ± 0.044 |
| AAAGTCTC | 0.0424 ± 0.053 |
| GCAATTGC | 0.159 ± 0.012 |
| TGATTTAA | -0.164 ± 0.087 |
| CCACGTGA | 0.245 ± 0.023 |
| ACAGCGAG | 0.232 ± 0.014 |
| AGACGGGG | -0.239 ± 0.024 |
| CTGAATAA | -0.221 ± 0.013 |
| TAATTATA | -0.257 ± 0.017 |
| GGCGAAGA | 0.0326 ± 0.058 |
| CCCCTACG | -0.0948 ± 0.0047 |
| CGCACTAC | 0.179 ± 0.017 |
| CCAGCTTC | -0.148 ± 0.011 |
| ACCACTTG | 0.121 ± 0.0065 |
| CAAGGATA | -0.186 ± 0.029 |
